# Experimental data published in the supplement of paper PMC8728848.
# Some of the results follow.
# Key:
# Test in all cases: glycan array binding signal (z-score within array); higher = stronger binding
# Details in all cases: glycan notation: IUPAC condensed, linker removed
# [1] = biological target: Fuc(a1-2)Gal(b1-4)GlcNAc(b1-3)Gal(b1-4)GlcNAc(b1-2)Man(a1-3)[Fuc(a1-2)Gal(b1-4)GlcNAc(b1-3)Gal(b1-4)GlcNAc(b1-2)Man(a1-6)]Man(b1-4)GlcNAc(b1-4)GlcNAc
# Summary of the method: (§1)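 Columns mapping to the same glycan were averaged after glycan names were converted to IUPAC-condensed notation. The data come from 3228 arrays in the Consortium for Functional Glycomics database, limited to those with an available protein sequence. Binding is reported as a within-array Z-score averaged across arrays of one protein sequence and across linkers.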
# [2] = biological target: Fuc(a1-2)Gal(b1-4)GlcNAc(b1-3)Gal(b1-4)GlcNAc(b1-3)Gal(b1-4)GlcNAc
# Summary of the method: as §1
# [3] = biological target: Fuc(a1-2)Gal(b1-4)GlcNAc(b1-3)GalNAc
# Summary of the method: as §1
# [4] = biological target: Fuc(a1-2)Gal(b1-4)GlcNAc(b1-3)[Fuc(a1-2)Gal(b1-4)GlcNAc(b1-6)]GalNAc
# Summary of the method: as §1
# [5] = biological target: Fuc(a1-2)Gal(b1-4)GlcNAc(b1-3)[Fuc(a1-3)[Gal(b1-4)]GlcNAc(b1-6)]Gal(b1-4)Glc
# Summary of the method: as §1
# [6] = biological target: Fuc(a1-2)Gal(b1-4)GlcNAc(b1-6)GalNAc
# Summary of the method: as §1
# [7] = biological target: Fuc(a1-2)Gal(b1-4)GlcNAc6S
# Summary of the method: as §1
# [8] = biological target: Fuc(a1-2)Gal(b1-4)[Fuc(a1-3)]GlcNAc
# Summary of the method: as §1
# [9] = biological target: Fuc(a1-2)Gal(b1-4)[Fuc(a1-3)]GlcNAc(b1-2)Man(a1-3)[Fuc(a1-2)Gal(b1-4)[Fuc(a1-3)]GlcNAc(b1-2)Man(a1-6)]Man(b1-4)GlcNAc(b1-4)[Fuc(a1-6)]GlcNAc
# Summary of the method: as §1
# [10] = biological target: Fuc(a1-2)Gal(b1-4)[Fuc(a1-3)]GlcNAc(b1-2)[Fuc(a1-2)Gal(b1-4)[Fuc(a1-3)]GlcNAc(b1-4)]Man(a1-3)[Fuc(a1-2)Gal(b1-4)[Fuc(a1-3)]GlcNAc(b1-2)Man(a1-6)]Man(b1-4)GlcNAc(b1-4)GlcNAc
# Summary of the method: as §1
# [11] = biological target: Fuc(a1-2)Gal(b1-4)[Fuc(a1-3)]GlcNAc(b1-3)Gal(b1-4)[Fuc(a1-3)]GlcNAc
# Summary of the method: as §1
# [12] = biological target: Fuc(a1-2)Gal(b1-4)[Fuc(a1-3)]GlcNAc(b1-3)Gal(b1-4)[Fuc(a1-3)]GlcNAc(b1-3)Gal(b1-4)[Fuc(a1-3)]GlcNAc
# Summary of the method: as §1
# [13] = biological target: Fuc(a1-2)Gal(b1-4)[Fuc(a1-3)]GlcNAc(b1-3)GalNAc
# Summary of the method: as §1
# [14] = biological target: Fuc(a1-2)Gal(b1-4)[Fuc(a1-3)]GlcNAc(b1-3)[Neu5Ac(a2-6)Gal(b1-4)GlcNAc(b1-6)]Gal(b1-4)Glc
# Summary of the method: as §1
# [15] = biological target: Fuc(a1-2)Gal3S(b1-4)GlcNAc
# Summary of the method: as §1
# [16] = biological target: Fuc(a1-2)Gal6S(b1-3)GlcNAc
# Summary of the method: as §1
# [17] = biological target: Fuc(a1-2)Gal6S(b1-3)GlcNAc6S
# Summary of the method: as §1
# [18] = biological target: Fuc(a1-2)Gal6S(b1-4)Glc
# Summary of the method: as §1
# [19] = biological target: Fuc(a1-2)Gal6S(b1-4)Glc6S
# Summary of the method: as §1
# [20] = biological target: Fuc(a1-2)[Gal(a1-3)]Gal
# Summary of the method: as §1
# [21] = biological target: Fuc(a1-2)[Gal(a1-3)]Gal(b1-3)GalNAc
# Summary of the method: as §1
# [22] = biological target: Fuc(a1-2)[Gal(a1-3)]Gal(b1-3)GalNAc(b1-3)Gal(a1-4)Gal(b1-4)Glc
# Summary of the method: as §1
# [23] = biological target: Fuc(a1-2)[Gal(a1-3)]Gal(b1-3)GlcNAc
# Summary of the method: as §1
# [24] = biological target: Fuc(a1-2)[Gal(a1-3)]Gal(b1-3)GlcNAc(b1-2)Man(a1-3)[Fuc(a1-2)[Gal(a1-3)]Gal(b1-3)GlcNAc(b1-2)Man(a1-6)]Man(b1-4)GlcNAc(b1-4)GlcNAc
# Summary of the method: as §1
# [25] = biological target: Fuc(a1-2)[Gal(a1-3)]Gal(b1-3)GlcNAc(b1-2)Man(a1-3)[Fuc(a1-2)[Gal(a1-3)]Gal(b1-3)GlcNAc(b1-2)Man(a1-6)]Man(b1-4)GlcNAc(b1-4)[Fuc(a1-6)]GlcNAc
# Summary of the method: as §1
# [26] = biological target: Fuc(a1-2)[Gal(a1-3)]Gal(b1-3)GlcNAc(b1-3)GalNAc
# Summary of the method: as §1
# [27] = biological target: Fuc(a1-2)[Gal(a1-3)]Gal(b1-3)GlcNAc(b1-6)GalNAc
# Summary of the method: as §1
# [28] = biological target: Fuc(a1-2)[Gal(a1-3)]Gal(b1-4)Glc
# Summary of the method: as §1
# [29] = biological target: Fuc(a1-2)[Gal(a1-3)]Gal(b1-4)GlcNAc
# Summary of the method: as §1
# [30] = biological target: Fuc(a1-2)[Gal(a1-3)]Gal(b1-4)GlcNAc(b1-2)Man
# Summary of the method: as §1
binder,measurement,setting,value
"HBHA-Rv (Mycobacterium tuberculosum), P0A5P6 (protein) MAENSNIDDIKAPLLAALGAADLALATVNELITNLRERAEETRTDTRSRVEESRARLTKLQEDLPEQLTELREKFTAEELRKAAEGYLEAATSRYNELVERGEAALERLRSQQSFEEVSARAEGYVDQAVELTQEALGTVASQTRAVGERAAKLVGIELPKKAAPAKKAAPAKKAAPAKKAAAKKAPAKKAAAKKVTQK",glycan array binding signal (z-score),[1],1.25
same,glycan array binding signal (z-score),[2],0.078
same,glycan array binding signal (z-score),[3],-0.231
same,glycan array binding signal (z-score),[4],0.505
same,glycan array binding signal (z-score),[5],-0.392
same,glycan array binding signal (z-score),[6],-0.294
same,glycan array binding signal (z-score),[7],0.833
same,glycan array binding signal (z-score),[8],-0.082
same,glycan array binding signal (z-score),[9],0.771
same,glycan array binding signal (z-score),[10],-0.327
same,glycan array binding signal (z-score),[11],-0.163
same,glycan array binding signal (z-score),[12],-0.286
same,glycan array binding signal (z-score),[13],-0.275
same,glycan array binding signal (z-score),[14],-0.227
same,glycan array binding signal (z-score),[15],-0.246
same,glycan array binding signal (z-score),[16],-0.227
same,glycan array binding signal (z-score),[17],4.34
same,glycan array binding signal (z-score),[18],0.069
same,glycan array binding signal (z-score),[19],0.366
same,glycan array binding signal (z-score),[20],0.108
same,glycan array binding signal (z-score),[21],0.154
same,glycan array binding signal (z-score),[22],-0.449
same,glycan array binding signal (z-score),[23],0.946
same,glycan array binding signal (z-score),[24],-0.386
same,glycan array binding signal (z-score),[25],-0.281
same,glycan array binding signal (z-score),[26],-0.259
same,glycan array binding signal (z-score),[27],-0.326
same,glycan array binding signal (z-score),[28],0.932
same,glycan array binding signal (z-score),[29],-0.209
same,glycan array binding signal (z-score),[30],-0.305
